One test deals with 786-0 renal. The test is described as follows: NCI-60 one-dose screen, 48 h (100 = growth as untreated, 0 = no growth, -100 = all killed).
Another test relates to K-562 leukemia. Described as above. Conditions: 0.25 µM.

Some structures have more than one record in an assay (separate samples or runs), and their calls can disagree.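 Testing used 96-well plates and a 48-hour single-concentration exposure. Example: -40 means 40% of the starting cells died.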 Some entries of the source have several records that differ or are many. The other results are left out here. How the source made its calls: active means growth percent below 10; inactive means the rest. An entry can have further records. These are repeated runs of one drug, at the concentration stated with the values; one value stands for one run. Signs of the kind (2×) stand for listed records that agree.

Turning to `COc1cccc2c1C(=O)c1c(O)c3c(c(O)c1C2=O)C[C@@](O)(C(=O)CO)C[C@@H]3OC1CC(N)C(O)C(C)O1` (stereo not given in full), the growth entry in the test with 786-0 renal (0.25 µM, runs of 2021) was “inactive: 16.7, 31.4, 21, 25.8, 23.5 (2×), 23.9, 18.9, 19.3, 20.2, 18.7, 24.7, 15.6, 17 (2×), 15.2, 20.5, 16.6, 18.6, 14.4 (2×), 13.2, 15 (2×), 16.8, 11.7 (2×), 11.3 (2×), 12.8, 16, 17.2, 17.5, 18.4, 10.7, 17.6 (2×), 21.6, 15.3, 28.3, 31.5, 11.6, 13.6, 14, 12, 12.5, 17.3, 17.7, 14.5% and active: 8.65, 5.26, 9.76, 9.23, 6.5, 7.88, 9.84%”; with 786-0 renal (0.25 µM, runs of 2022), “active: 8.78, 3.29, 0.469, 5.52, 4, 6.36, 8.38, 5.71, 9.22, 7.35% and inactive: 16.7, 13.4 (2×), 18.3, 13.9, 19.5, 26.7, 15.3, 11, 44.6, 59.1, 16.6, 51.5, 51.8, 82.8, 11.1, 11.6, 13.1%”; in the test with 786-0 renal (25 µM, runs of 1991), “active: -15.9, -16.1, -20.9, -27, -24.5, -50.3, -3.08, -16.8, -3.55, -26.2, -18.4, -18.9, -3.86, 4.14, -30.4, -2.25, -37.1, -13.9%”; with 786-0 renal (25 µM, runs of 1992), “active: -40.9, -25.9 (2×), -23.5 (3×), -46.2, 3.48, -22.3, -17.5, -4.27, -60.3, -58.2, -14.4 (2×), -3.89, -7.29, -38, -33.3, -51.6, -10.7, -37.9, -38.9, -9.74, -35.7 (2×), -7.35, -40.8, -23.6 (2×), -25.3, -46.5, -96.6, -42.5, -8.33, -8.6, -15.9, -17.9, -20.3, -35.4, -32.2, -34, -19.4, -29.4, 0.2, -14.9, 5.36, -10.4, -8.41, -11, -13.5, -19.9, -44.3, -12.6, -45.9, -35, -24.9, -18.5, -67.9, -50, -37.8, -17.6, -39.4, -39.3, -16.4, -31.3, -48, -9.09, -15.2, 0.326, -85.4, -97.3, -8.22, -31.2, -19.5, -7.65, -53.1, -49.3, -38.1, -30.4, -17.8, -34.2, -26.4, -50.9, 1.43, -50.5, -19.8, -51.8, -30.7, -5.99, -16.1, -36.1, -73.9, -35.5, -24.4, -16.9, -34.6, -56.7, -70, -42.1, -57.3, -86.8, -57.8, -29.9, -51.1 (2×), -56.2, -45.5, 0.728, 2.29, -17.2% and inactive: 87.8%, 23%”; in the test on 786-0 renal (25 µM, runs of 1993), “active: 0.0675, -5, -43.5, -53.1, -50.3, -20.5, -5.65, -30.5, -41, 2.09, -13.3, -50.8, -39.5, -39.6, -5.41, -16.1, -27.9, -12.3, 2.23, -11, -26, -44.5, -14.8, -11.6, -11.5, -7.43, -45, -24.9, -1.69, -23.6, -39.9, 1.7, -43.6, -21.4, -50.4, 3.01, -38.1, -45.2, -45.3, -36.4, -32.1, -54.6, -30.1, -35.2% and inactive: 27.9%”; in the test with 786-0 renal (25 µM, runs of 1994) it was “active: -17.5, -29.4, -35.7 (2×), -64.9, 1.81, -7.8, -2.43, -31.5, -51.4, -33.4, 4.23, -78, -33.3, -51.5, -1.19, -50.9, -13.7, -26.4, -34.9, -27, -7.64, -30.1, 0.942, 0.151, -2.45, 6.95, -14.1, 5.01, -52.9, -2.31% and inactive: 101%, 79.3%”. The growth result was “active: -12, 3.22, -45.6, 6.76, -43.3, -44.3, -10.1, 4.69, -28.4 (2×), -31.6, -68.8, -19, -8.63, -11.1, -16.7, -1.9, 0.446, -8.75, -25.5, -23.1, -41.9, -44.4, -19.8, -24.1, -46.8, 3.03, -8.92, -37.4, -30.3, -55, -90, -28.7, -1.52, 3.73, -9.7, -23.5, -6.25, 1.31%” in the test on 786-0 renal (25 µM, runs of 1995); “active: -23.9, -42.6, -2.43, 2.61, 1.08 (2×), 4.68, 0.957, -13.6, 1.82, 5.24, -26.7, -28.7, -44.4, -46.5, 2.51, -31.6, -24.8, -39.7, -50.8, -1.46, -28.6, -44.3, -2.4, 1.09, -56.7, -83.5, -24.7, -45.9, 0.763, -12.5, -22.9, 2.95, -23, -29.7, -0.245, -20.7, 2.56, -24.9, -17.6, -29.9, -25.3, -35.3, 5.01, -11.9, -46.1, -28.2, -41.9, 4.97, -22.4, 2.07, -44.9, -58.6, -8.1% and inactive: 10.2, 99.4, 12, 19.3%” with 786-0 renal (25 µM, runs of 1996); “active: -6.85, -8.51, -22.3, -1.13, -28, -24.7, -16, -49, -41, -2.92, -26.4, -29, -17.1, 2.92, -20.2, -45, -15.1, -12.8, -23.2, 1.71, 8.53, -40.1, -41.5, -11.3, -36.4, -38.3, -51.5, -41.9, -29.7, -29.1, -35.3, -40, -17.7, -39.1, -34.1, -46.8, -45.5, -57.9, -28.2, -28.7, -5.75, -26, -29.2, -33.1%” in the test on 786-0 renal (25 µM, runs of 1997); “active: -58, -27.4, -8.28, -42.5, 0.179, 7.47, -14.7, -12.4, -28.4, -74.9, -46, -50.3, -31.5, -15.6, -11, -67.1, -0.638, 8.48, -36.6, -91.7, -5.86, -66.7, -29.9% and inactive: 32.7%” in the test with 786-0 renal (25 µM, runs of 1998); “active: -48, -36.6, -17.5, -60.1, -25.8, -50.1, -100 (3×), -62.1, -84.9, -47, -74, 3.35, 1.22, -77.1, -94.1, -68.4%” in the test with 786-0 renal (25 µM, runs of 1999); “active: -100% (2×), -10.2%, 0.0427%” with 786-0 renal (25 µM, runs of 2000). The growth entry in the test with K-562 leukemia (runs of 2006) is “inactive: 20.6%, 28.2%”; with K-562 leukemia (runs of 2007), “inactive: 23.5, 34.3, 20.6, 19.6, 26.7, 31.3, 30.6, 22, 41.8, 26.2, 49.1, 50.2, 52, 43.7, 40.7, 48.4 (3×), 24.6, 33.3 (3×), 40.5, 40.1, 62.1, 46.7, 34.7, 36, 43, 25.8, 13.6, 31.6, 82.8, 47.2, 46.5, 34.8, 53.7, 44, 58.1, 41.7, 25.9, 55.1%”; with K-562 leukemia (runs of 2008), “inactive: 59.3, 47.5, 60.8, 51.4, 70, 44.3, 93.1, 54.8, 38.4, 74.2, 69.7, 43.6, 28.5, 65.2, 27.1, 58.3, 62.9, 65.4, 26, 15.1, 28.9, 28, 17, 23.8, 18.4, 19.8, 64.5, 20.6, 23.2, 18.3, 20, 29.3, 34.2, 22.3, 25, 19.5, 47.9, 46.3, 42.4, 37.1, 15.2, 16.7, 59.7, 48.1, 32.9, 12.5, 17.5, 24.6 (2×), 23.5% and active: 8.9, 9.7, 8.82, -14.2, 6.99%”.

Values taken from PubChem BioAssay (NCI).
